This is a selection; strong and weak results do not stand in their true shares. At the low end of the ranking the order means little. This is one part of the list.

Common to all, as to experiment: RNA Bind-n-Seq (nitrocellulose filter binding and sequencing)
Holding throughout (details): constant regions annealed to DNA blockers; guide miR-122 5' phosphate; 30 mM Tris pH 8.0, 100 mM potassium acetate, 2 mM magnesium acetate, 0.5 mM TCEP, 0.005% NP-40, 0.01 mg/ml yeast tRNA; 3 nM AGO2-miR-122, 100 nM RNA library …; high values mean tight binding

Assay [1] concerns the target AGO2 WT (phosphosite mutant background) S387D + S824A + S828D + S831D + S834A (UniProt Q9UKV8).
For assay [2], the target named is AGO2 F182del S387D + S824A + S828D + S831D + S834A + del182-182 (UniProt Q9UKV8).
Assay [3] concerns the target AGO2 A367P A367P + S387D + S824A + S828D + S831D + S834A (UniProt Q9UKV8).

UniProt Q9UKV8, sequence (Q9UKV8 whole entry A367P/S387D/S824A/S828D/S831D/S834A): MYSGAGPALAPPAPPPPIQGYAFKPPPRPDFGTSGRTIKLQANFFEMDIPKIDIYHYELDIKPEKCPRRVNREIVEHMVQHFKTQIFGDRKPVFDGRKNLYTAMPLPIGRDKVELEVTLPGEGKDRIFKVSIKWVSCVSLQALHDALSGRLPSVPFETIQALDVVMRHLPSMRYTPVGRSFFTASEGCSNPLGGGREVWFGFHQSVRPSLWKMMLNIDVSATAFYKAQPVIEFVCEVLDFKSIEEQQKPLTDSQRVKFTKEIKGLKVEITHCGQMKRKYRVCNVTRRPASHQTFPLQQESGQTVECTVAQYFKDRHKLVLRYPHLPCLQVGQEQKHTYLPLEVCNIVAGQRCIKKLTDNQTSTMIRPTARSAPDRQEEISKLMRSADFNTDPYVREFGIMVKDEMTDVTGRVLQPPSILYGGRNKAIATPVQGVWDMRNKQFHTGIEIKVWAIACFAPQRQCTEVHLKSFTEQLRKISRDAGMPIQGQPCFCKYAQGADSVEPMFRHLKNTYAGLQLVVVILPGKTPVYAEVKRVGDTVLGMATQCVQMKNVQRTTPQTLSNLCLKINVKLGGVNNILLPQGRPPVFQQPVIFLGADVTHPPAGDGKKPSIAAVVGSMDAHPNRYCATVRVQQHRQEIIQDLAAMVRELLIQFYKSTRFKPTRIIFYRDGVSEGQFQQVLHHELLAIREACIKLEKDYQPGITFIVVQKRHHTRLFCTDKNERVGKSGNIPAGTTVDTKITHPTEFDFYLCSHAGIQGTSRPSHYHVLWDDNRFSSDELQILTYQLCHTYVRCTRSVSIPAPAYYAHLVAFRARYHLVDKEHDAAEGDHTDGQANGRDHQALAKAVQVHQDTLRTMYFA

For “GAGUUCUACAGUCCGACGAUCCCAACGCACUCCACACCUGGAAUUCUCGGGUGCCAA / UGGAGUGUGACAAUGGUGUUUG / GATCGTCGGACTGTAGAACTC / TTGGCACCCGAGAATTCCA”, the binding signal (fold enrichment over input) came to 117 in assay [1] and 91.6 in assay [2].

For “GAGUUCUACAGUCCGACGAUCCCAACAUGCCUUGCACCUGGAAUUCUCGGGUGCCAA / UGGAGUGUGACAAUGGUGUUUG / GATCGTCGGACTGTAGAACTC / TTGGCACCCGAGAATTCCA”, the binding signal (fold enrichment over input) in assay [1] was 0.0933; in assay [2] it was 0.0418.

As to “GAGUUCUACAGUCCGACGAUCCCAACGCGUCUUACACCUGGAAUUCUCGGGUGCCAA / UGGAGUGUGACAAUGGUGUUUG / GATCGTCGGACTGTAGAACTC / TTGGCACCCGAGAATTCCA”, the binding signal (fold enrichment over input) in assay [1] was 0.118; in assay [2], 0.109.

In the case of “GAGUUCUACAGUCCGACGAUCCCAACGCGCUCCACACCUGGAAUUCUCGGGUGCCAA / UGGAGUGUGACAAUGGUGUUUG / GATCGTCGGACTGTAGAACTC / TTGGCACCCGAGAATTCCA”, the results for the binding signal (fold enrichment over input) in assay [1] and in assay [2] were 1.63 and 6.7, respectively.

As for “GAGUUCUACAGUCCGACGAUCCCAACAUAUUCUACACCUGGAAUUCUCGGGUGCCAA / UGGAGUGUGACAAUGGUGUUUG / GATCGTCGGACTGTAGAACTC / TTGGCACCCGAGAATTCCA”, the binding signal (fold enrichment over input) in assay [1] stood at 0.115; in assay [2], 0.0701.

Take “GAGUUCUACAGUCCGACGAUCCCAACAUAUCCCGCACCUGGAAUUCUCGGGUGCCAA / UGGAGUGUGACAAUGGUGUUUG / GATCGTCGGACTGTAGAACTC / TTGGCACCCGAGAATTCCA”: the binding signal (fold enrichment over input) in assay [1] turned out to be 0.0832; in assay [3], 0.11; in assay [2], 0.0433.

Regarding “GAGUUCUACAGUCCGACGAUCCCAACGUACCCUACACCUGGAAUUCUCGGGUGCCAA / UGGAGUGUGACAAUGGUGUUUG / GATCGTCGGACTGTAGAACTC / TTGGCACCCGAGAATTCCA”, the binding signal (fold enrichment over input) turned out to be 0.0972 in assay [1] and 0.0684 in assay [2].

On to “GAGUUCUACAGUCCGACGAUCCCAACACAUUCCACACCUGGAAUUCUCGGGUGCCAA / UGGAGUGUGACAAUGGUGUUUG / GATCGTCGGACTGTAGAACTC / TTGGCACCCGAGAATTCCA”, for which the binding signal (fold enrichment over input) in assay [1] was 0.267; in assay [2], 2.93.

Take “GAGUUCUACAGUCCGACGAUCCCAACGUACUUCGCACCUGGAAUUCUCGGGUGCCAA / UGGAGUGUGACAAUGGUGUUUG / GATCGTCGGACTGTAGAACTC / TTGGCACCCGAGAATTCCA”: the binding signal (fold enrichment over input) was 0.0866 in assay [1] and 0.049 in assay [2].

As to “GAGUUCUACAGUCCGACGAUCCCAACAUACUCUACACCUGGAAUUCUCGGGUGCCAA / UGGAGUGUGACAAUGGUGUUUG / GATCGTCGGACTGTAGAACTC / TTGGCACCCGAGAATTCCA”, the figures for the binding signal (fold enrichment over input) in assay [1] and in assay [2] were 0.101 and 0.128, respectively.

With “GAGUUCUACAGUCCGACGAUCCCAACACGUCUCGCACCUGGAAUUCUCGGGUGCCAA / UGGAGUGUGACAAUGGUGUUUG / GATCGTCGGACTGTAGAACTC / TTGGCACCCGAGAATTCCA”, the binding signal (fold enrichment over input) in assay [1] is 0.0885; in assay [2], 0.0559.

In the case of “GAGUUCUACAGUCCGACGAUCCCAACGCAUCCUGCACCUGGAAUUCUCGGGUGCCAA / UGGAGUGUGACAAUGGUGUUUG / GATCGTCGGACTGTAGAACTC / TTGGCACCCGAGAATTCCA”, the binding signal (fold enrichment over input) in assay [1] amounted to 0.0873; in assay [2], 0.0468.

Consider “GAGUUCUACAGUCCGACGAUCCCAACGUGUUUUGCACCUGGAAUUCUCGGGUGCCAA / UGGAGUGUGACAAUGGUGUUUG / GATCGTCGGACTGTAGAACTC / TTGGCACCCGAGAATTCCA”, for which the values for the binding signal (fold enrichment over input) in assay [1] and in assay [2] were 0.0887 and 0.0312, respectively.

Turning to “GAGUUCUACAGUCCGACGAUCCCAACGCACUUUACACCUGGAAUUCUCGGGUGCCAA / UGGAGUGUGACAAUGGUGUUUG / GATCGTCGGACTGTAGAACTC / TTGGCACCCGAGAATTCCA”, the results for the binding signal (fold enrichment over input) in assay [1] and in assay [2] were 0.12 and 0.122, respectively.

As to “GAGUUCUACAGUCCGACGAUCCCAACGCGUUCCGCACCUGGAAUUCUCGGGUGCCAA / UGGAGUGUGACAAUGGUGUUUG / GATCGTCGGACTGTAGAACTC / TTGGCACCCGAGAATTCCA”, the binding signal (fold enrichment over input) turned out to be 0.112 in assay [1] and 0.0455 in assay [2].

For the sequence “GAGUUCUACAGUCCGACGAUCCCAACGCGCUUCGCACCUGGAAUUCUCGGGUGCCAA / UGGAGUGUGACAAUGGUGUUUG / GATCGTCGGACTGTAGAACTC / TTGGCACCCGAGAATTCCA”, the binding signal (fold enrichment over input) worked out at 0.0946 in assay [1] and 0.0396 in assay [2].

Regarding “GAGUUCUACAGUCCGACGAUCCCAACAUAUCUCGCACCUGGAAUUCUCGGGUGCCAA / UGGAGUGUGACAAUGGUGUUUG / GATCGTCGGACTGTAGAACTC / TTGGCACCCGAGAATTCCA”, the binding signal (fold enrichment over input) in assay [1] was determined as 0.0807; in assay [2], 0.0512.

As to “GAGUUCUACAGUCCGACGAUCCCAACAUAUCCUGCACCUGGAAUUCUCGGGUGCCAA / UGGAGUGUGACAAUGGUGUUUG / GATCGTCGGACTGTAGAACTC / TTGGCACCCGAGAATTCCA”, the binding signal (fold enrichment over input) is 0.0825 in assay [1], 0.12 in assay [3] and 0.0514 in assay [2].

Values taken from article PMC12529666.
